Measurements as given in PubChem BioAssay AID686970 (National Center for Advancing Translational Sciences (NCATS), 2013).
Screen size: about 360,000 compounds; about 6,000 (1.7%) were called active. Inconclusive means that the source gave no clear call. Such entries were picked first, then a sample of the others. Calls come from the whole dose curve; as a rule, active = well fitted cell-killing curve with a large enough effect; inconclusive = small, poorly fitted or top-dose-only effect, or effect the other way; inactive = flat fitted curve, though single readings scatter. Potencies of inconclusive entries are left out as doubtful fits.

assay: qHTS for induction of synthetic lethality in tumor cells producing 2HG: qHTS for the HT-1080-NT fibrosarcoma cell line; details: HT-1080-NT fibrosarcoma viability, CellTiter-Glo ATP luminescence, 48 h; activity, negative = less viability: at 46.1 µM (top of the series) unless noted;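 note: NT is the 2HG producing partner of a matched IDH1 knockdown line; nearly all actives have a fitted effect of over 55% in size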;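 for activity, negative = less viability: 0% = DMSO-treated cells and -100% = media-only wells without cells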
Method in brief: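 Compounds were tested in concentration-response format on HT-1080-NT cells for 48 hours at 37 degrees C. Cell viability came from CellTiter-Glo luminescence; curves were classified by r2, response magnitude and activity.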
Potency is the fitted concentration of half-maximal effect; tags give direction and shape of the fitted curve.

| SMILES | Potency | activity, negative = less viability |
| --- | --- | --- |
| c1ccc2c(-c3cc(NCc4ccncc4)n4nccc4n3)cccc2c1 | inconclusive [rising, single point] | – |
| COc1ccc(CCN(C)C(=O)Cc2ccc(-c3ccccc3)cc2)cc1OC | inconclusive [cytotoxic, full curve] | – |
| CCOC(=O)C1(CCOc2ccccc2)CCN(Cc2cc(OC)cc(OC)c2)CC1 | inconclusive [cytotoxic, partial curve] | – |
| Cc1cc(C)nc(Nc2nc(C(N)Cc3ccc(C(F)(F)F)cc3)cs2)n1 (configuration not stated) | inconclusive [cytotoxic, single point] | – |
| Cc1ccnc(NC(=O)Nc2ccc3c(c2)OCO3)c1 | – | inactive: 16.4% |
| Cn1c(=O)c2[nH]c(SCC(=O)c3ccc(F)cc3)nc2n(C)c1=O | inconclusive [rising, single point] | – |
| COC(=O)C1=CN(c2c(C)cc(C)cc2C)C(N)=C(C#N)C1c1cccc(F)c1 (configuration not stated) | inconclusive [cytotoxic, single point] | – |
| C=CC[C@H](CC(=O)N(CCO)Cc1ccccc1)C(=O)N[C@H](COC(=O)[C@H](CC=C)CC(=O)OC(C)(C)C)Cc1c[nH]c2ccccc12 | inconclusive [cytotoxic, single point] | – |
| CC1(C(=O)NCc2ccccc2Br)CCN1C(=O)Cc1ccc(-c2ccccc2)cc1 (configuration not stated) | active: 16.4 µM | – |
| O=C(CCCn1c(=O)[nH]c2ccccc2c1=O)Nc1ccc(F)cc1 | – | inactive: 12.5% |
| CCn1c(NCc2c[nH]c3ccccc23)nc2ccccc21 | inconclusive [cytotoxic, partial curve] | – |
| CN(C)c1ccc(/C=C/C(=O)c2c(O)c3ccccc3oc2=O)cc1 | – | inactive: -9.96% |
| COc1ccc(Cl)cc1Nc1nc(NCCO)nc(N2CCCC2)n1 | inconclusive [cytotoxic, partial curve] | – |
| Cc1cccc(C)c1-n1nnnc1C(c1cccc2ccccc12)N1CCN(C/C=C/c2ccccc2)CC1 (configuration not stated) | inconclusive [cytotoxic, partial curve] | – |
| CCOc1ccc(S(=O)(=O)N2c3ccccc3CC2C)cc1 (configuration not stated) | active: 3.16 µM | – |
| Cc1ccc(-c2nnc(SCC(=O)Nc3ccccc3F)o2)cc1 | active: 13 µM | – |
| O=c1cc(-c2ccccc2)cc(-c2ccccc2)n1O | – | inactive: -29.3% |
| C(=N\Nc1nc2ccccc2s1)/c1cccs1 | active: 10 µM | – |
| CN1C2CCC1/C(=C\c1ccccc1)C(=O)/C2=C\c1ccccc1 | inconclusive [cytotoxic, single point] | – |
| COc1cccc(N=NC2C(=O)N(C(N)=S)N=C2C)c1 (configuration not stated) | active: 25.9 µM | – |
| O=C(CCl)Nc1ncc(S(=O)(=O)c2ccc([N+](=O)[O-])cc2)s1 | inconclusive [cytotoxic, single point] | – |
| Cc1cc(=O)oc2cc(NC(=O)C3COc4ccccc4O3)ccc12 (configuration not stated) | inconclusive [cytotoxic, single point] | – |
| CCN(Cc1cccc(OC)c1)CC1CCCN(CCc2cccc(OC)c2)C1 (configuration not stated) | – | inactive: 1.74% |
| Cc1sc(NC(=O)CN2CCN(c3ccccn3)CC2)c(C#N)c1C | – | inactive: -7.88% |

| SMILES | Potency | activity, negative = less viability |
| --- | --- | --- |
| C[C@@H]1CN([C@H](C)CO)C(=O)c2c(c3ccccc3n2C)-c2ccccc2CO[C@H]1CN(C)Cc1ccc(C(F)(F)F)cc1 | inconclusive [cytotoxic, single point] | – |
| CCCn1c(SCC(=O)Nc2cccnc2Cl)n[nH]c1=O | – | inactive: -0.0792% |
| C=CCn1c(C)nnc1SCC(=O)Nc1ccccc1C(=O)NC1CC1 | – | inactive: 2.48% |
| NC(=O)c1ccc(NC(=O)COC(=O)c2c3c(nc4ccccc24)/C(=C\c2ccc4c(c2)OCO4)CCC3)cc1 | inconclusive [cytotoxic, single point] | – |
| CCNC(=O)c1c(O)c2ccccc2[nH]c1=O | inconclusive [cytotoxic, single point] | – |
| Cc1cc2nc(-c3cccnc3SCC(=O)NCc3ccco3)[nH]c2cc1C | active: 10 µM | – |
| C=CC[C@H](CC(=O)N(CCO)Cc1ccccc1)C(=O)NC[C@@H](OC(=O)[C@@H](CC=C)Cc1ccc(F)cc1)c1ccccc1 | inconclusive [cytotoxic, single point] | – |
| CCC1CCCCN1C(=O)c1cc2cc(Br)ccc2oc1=O (configuration not stated) | – | inactive: 14.4% |
| Cc1ccc(C(=O)NC(=S)N2CC(C)OC(C)C2)cc1[N+](=O)[O-] (configuration not stated) | active: 3.55 µM | – |
| COc1ccccc1N1Cc2ccccc2C1 | – | inactive: -3.43% |
| CCN(CC)CCn1c(NC(=O)c2ccccc2O)nc2ccccc21 | – | inactive: -12.8% |
| C=CCc1c(C)nc(-c2ccccc2)nc1Nc1ccc(O)cc1 | inconclusive [cytotoxic, single point] | – |
| Cc1cc2c3c(c1)C1(C(=O)N3C(C)(C)CC2C)C(C#N)=C(N)Oc2n[nH]c(C)c21 (configuration not stated) | inconclusive [cytotoxic, single point] | – |
| COC(=O)[C@@]1(Cc2ccc(F)cc2)[C@H]2c3cc(C(=O)N(C)C)n(CCCNc4ncc(C(F)(F)F)cc4Cl)c3C[C@H]2CN1C(=O)c1ccccc1 | inconclusive [cytotoxic, single point] | – |
| Cc1cccc(NC2=C/C(=N/S(=O)(=O)c3cccs3)c3ccccc3C2=O)c1 | active: 4.61 µM | – |
| O=C(CSc1nnc(-c2c[nH]c3ccccc23)o1)c1ccccc1 | inconclusive [cytotoxic, single point] | – |
| COc1ccc(OC)c(C2CC(c3ccccc3)=NN2C(=S)Nc2ccccc2)c1 (configuration not stated) | inconclusive [cytotoxic, full curve, poor fit] | – |
| CC(C)CNC(=S)N1CCC(c2nc(-c3ccc(F)cc3)no2)CC1 | inconclusive [cytotoxic, single point] | – |
| Cc1csc(/C(=N\O)c2csc(C)n2)n1 | inconclusive [cytotoxic, single point] | – |
| CC1CN(C(=O)COc2ccc3c(-c4ccccc4)cc(=O)oc3c2)CC(C)O1 (configuration not stated) | – | inactive: 0% |
| O=C(NNC(=O)c1cc(-c2ccc(Cl)cc2Cl)nc2ccccc12)Nc1ccccc1 | inconclusive [cytotoxic, single point] | – |
| OC(CN1C2=NCCCN2c2ccccc21)c1ccc(Cl)cc1 (configuration not stated) | inconclusive [cytotoxic, single point] | – |
| NC(CCc1ccccc1)c1csc(Nc2ccccn2)n1 (configuration not stated) | inconclusive [cytotoxic, single point] | – |
| CC1=NN(Cc2c(C)nn(Cc3ccccc3)c2C)C(C)(C)C1 | inconclusive [rising, single point] | – |

| SMILES | Potency | activity, negative = less viability |
| --- | --- | --- |
| O=C(Nc1ccc(N2CCN(C(=O)c3ccccc3)CC2)cc1)c1ccc([N+](=O)[O-])o1 | active: 7.31 µM | – |
| O=C(CCc1nc2sc3c(c2c(=O)[nH]1)CCCC3)Nc1ccccc1Cl | – | inactive: 13.4% |
| Cc1ccc2oc(=O)c3cnn(CC(=O)N4CCN(c5ccccn5)CC4)c3c2c1 | inconclusive [cytotoxic, single point] | – |
| COc1ccc(CN2CCCN(S(=O)(=O)c3ccc(Br)cc3)CC2)cc1 | – | inactive: -12.3% |
| CCCNC(=O)c1cc2c(c(-c3cccc(-c4ccc(F)cc4)c3)n1)[C@H](CCO)N(S(=O)C(C)(C)C)C2 (some centres not stated) | inconclusive [cytotoxic, single point] | – |
| O=C(Nc1ccc(Cl)cc1)N1CCC(c2nc(-c3ccc(F)cc3)no2)CC1 | inconclusive [cytotoxic, single point] | – |
| O=C(NCc1cccc(Cl)c1)c1ccc(-n2cncn2)c2ccoc12 | – | inactive: 0.567% |
| Cc1cc(C2CCCCC2)n(O)c(=O)c1 | active: 8.2 µM | – |
| CC(NS(=O)(=O)c1ccc2ccccc2c1)c1ccccn1 (configuration not stated) | – | inactive: -4.5% |
| COc1ccc(C)cc1NC(=O)CC1COc2ccccc2O1 (configuration not stated) | – | inactive: -1.07% |
| O=C(COC(=O)COc1ccc(Br)cc1)NC1CCCC1 | – | inactive: 12.5% |
| COc1ccc(-c2cc(-c3nnc(COC(=O)C4CC4C)o3)c3ccccc3n2)cc1OC (configuration not stated) | – | inactive: 4.09% |
| N=c1c2c(-c3ccccc3)c(-c3ccccc3)n(Cc3ccco3)c2ncn1CCCn1ccnc1 | inconclusive [cytotoxic, single point] | – |
| Cc1cccnc1C(NC(=O)C1CCN(CCCc2ccccc2)CC1)c1ccc(Cl)cc1 (configuration not stated) | active: 25.9 µM | – |
| C=CCNc1nnc(SC2CC(=O)N(c3ccc(OCCC)cc3)C2=O)s1 (configuration not stated) | inconclusive [cytotoxic, single point] | – |
| CCC/C=N/Nc1nnc(Cc2ccccc2)c(=O)[nH]1 | inconclusive [cytotoxic, single point] | – |
| CCNC(C(=O)c1c[nH]c2c(CC)cccc12)c1ccccc1 (configuration not stated) | inconclusive [cytotoxic, single point] | – |
| Cc1cccc(S(=O)(=O)NC(=O)C2(C)CCN2C(=O)Cc2ccccc2)c1 (configuration not stated) | inconclusive [rising, single point] | – |
| Oc1ccc(/C=N/Nc2ccc(C(F)(F)F)cn2)cc1 | inconclusive [cytotoxic, single point] | – |
| CCn1c(NC(=S)Nc2ccccc2)nc2ccccc21 | inconclusive [cytotoxic, single point] | – |
| Cn1c(N)c(C(=O)CSc2ncn[nH]2)c(=O)n(C)c1=O | – | inactive: -3.24% |
| Cc1ccc(OCCN2C(=O)OC(C)(C)C2(C)O)cc1 (configuration not stated) | – | inactive: -0.0455% |
| CC[C@]12c3[nH]c4cc(-c5ccco5)ccc4c3CCN1C(=O)[C@@H](CC(=O)NCCCN(C)C)C[C@@H]2C(=O)N1CCN(C(=O)c2ccco2)CC1 | – | inactive: 5.66% |
| Oc1ccccc1CNc1ccc(OC(F)(F)F)cc1 | active: 18.4 µM | – |
